# In patent US20110263507A1 (priority 2007, published 2011):
# Like-named read-outs stand apart in the source and are kept apart here. At least one peptide structure holds a part that was inferred or is arguable (an end, a ring closure or a residue). Some of these results come from one statement about several compounds together. Where a SMILES comes first, the peptide text is derived from it. [ ]: non-standard residue; d: D form. Ala(indol-4-yl) = N[C@@H](Cc1cccc2[nH]ccc12)C(=O)O; 1Nal = N[C@@H](Cc1cccc2ccccc12)C(=O)O; Tle = CC(C)(C)[C@H](N)C(=O)O; dOrn = NCCC[C@@H](N)C(=O)O; Dab = NCC[C@H](N)C(=O)O; Dap = NC[C@H](N)C(=O)O
# Columns and labels:
# hNTS2 = molecular target: T1, hNTS2 (Homo sapiens, UniProt O95665); assay: Radioligand competition binding with [3H]NT, membranes of CHO-K1 cells expressing hNTS2
# T1 construct: expressed in transfected cells; host or cells: CHO-K1
# T1 sequence (O95665 whole entry): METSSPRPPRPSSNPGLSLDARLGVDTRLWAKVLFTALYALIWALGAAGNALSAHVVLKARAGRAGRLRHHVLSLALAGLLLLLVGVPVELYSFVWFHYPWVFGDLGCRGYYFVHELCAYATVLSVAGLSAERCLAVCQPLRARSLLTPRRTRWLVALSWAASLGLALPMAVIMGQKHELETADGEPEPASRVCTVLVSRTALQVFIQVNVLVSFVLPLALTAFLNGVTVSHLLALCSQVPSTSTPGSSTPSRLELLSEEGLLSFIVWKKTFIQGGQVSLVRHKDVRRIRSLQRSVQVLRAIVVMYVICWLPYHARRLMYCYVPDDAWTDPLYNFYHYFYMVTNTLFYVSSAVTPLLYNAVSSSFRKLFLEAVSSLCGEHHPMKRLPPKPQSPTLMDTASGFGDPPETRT
# hNTS1 = molecular target: T2, hNTS1 (Homo sapiens, UniProt P30989); assay: Radioligand competition binding with [3H]NT, membranes of CHO-K1 cells expressing hNTS1; conditions: for Kd: Table 2, n.d. = no detectable binding at 1 μM, †/* values published before by the same laboratory, read-out: hNTS1 Geometric Mean ∀ SEM (equilibrium dissociation constant Kd); for selectivity for hNTS1: text
# T2 construct: expressed in transfected cells; host or cells: CHO-K1
# T2 sequence (P30989 whole entry): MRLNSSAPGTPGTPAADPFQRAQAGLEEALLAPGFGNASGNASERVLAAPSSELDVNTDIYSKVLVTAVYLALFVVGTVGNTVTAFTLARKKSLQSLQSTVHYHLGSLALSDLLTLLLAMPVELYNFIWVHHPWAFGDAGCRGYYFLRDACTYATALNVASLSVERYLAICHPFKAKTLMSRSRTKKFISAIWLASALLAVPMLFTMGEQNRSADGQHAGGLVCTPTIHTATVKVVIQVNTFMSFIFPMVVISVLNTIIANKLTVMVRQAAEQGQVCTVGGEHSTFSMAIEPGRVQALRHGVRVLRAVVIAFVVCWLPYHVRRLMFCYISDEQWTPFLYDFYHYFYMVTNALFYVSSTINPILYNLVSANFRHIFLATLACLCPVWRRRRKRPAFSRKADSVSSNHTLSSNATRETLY
# Method: CHO-K1 cells that had been stably transfected separately with the hNTS1 or hNTS2 genes were cultured in 150 mm (500 cm^2) Petri plates with 35 ml of Dulbecco's modified Eagle's medium containing 100 μM minimal essential medium nonessential amino acids (Life Technologies, Inc.) supplemented with 5% (v/v) FetalClone II bovine serum product (Hyclone Labs, Logan, Utah). […] The cellular pellet (in Tris-HCl buffer) was stored at […] until the radioligand binding was performed.
# For use in binding assays, crude membrane preparations were prepared by centrifugation of the cellular pellet at 35,600×g for 10 min. The supernatant was decanted and discarded, and the cellular pellet was resuspended in 1 ml of Tris-HCl buffer followed by homogenization with a Brinkmann Polytron at setting 5.5 for 15 s. Centrifugation was repeated as above, the supernatant was decanted and discarded, and the cellular pellet was resuspended in 1 ml of Tris-HCl buffer followed by homogenization. Centrifugation was repeated a third time, the supernatant was discarded, and the final cellular pellet was suspended in 0.5-2.5 ml of Tris-HCl buffer. Protein concentration of the membrane preparation was estimated by the method of Lowry et al. using bovine serum albumin as a standard.
# Incubation was at 20° C. for 40 min. The assay was routinely terminated by addition of ice-cold 0.9% NaCl (5×1.5 ml), followed by rapid filtration through a GF/B filter strip that had been pretreated with 0.2% or 2% polyethyleneimine. Details of binding assays have been described previously. […] Data were analyzed using the LIGAND program.
# [1] = Table 2, read-out: hNTS2 Geometric Mean ∀ SEM (equilibrium dissociation constant Kd)
Structure (SMILES),Kd (hNTS2; [1]) [nM],Kd (hNTS1) [nM],selectivity for hNTS1 (hNTS1) [fold],"Kd (hNTS2; text, read-out: Kd at hNTS2) [nM]"
"CC[C@H](C)[C@H](NC(=O)[C@H](Cc1ccc(O)cc1)NC(=O)[C@@H]1CCCN1C(=O)[C@H](CCN)NC(=O)[C@@H](N)CCCNC(=N)N)C(=O)N[C@@H](CC(C)C)C(=O)O [NT30, [DAB^9]NT(8-13)] (H-R[Dab]PYIL-OH; N-terminus and C-terminus assumed)",0.9 ± 0.04,0.41 ± 0.05,–,–
"CC(C)C[C@H](NC(=O)[C@@H](NC(=O)[C@H](Cc1cccc2[nH]ccc12)NC(=O)[C@@H]1CCCN1C(=O)[C@H](N)CCCCN)C(C)(C)C)C(=O)O [NT72, [D-Lys^9,L-neo-Trp^11,tert-Leu^12]NT(9-13)] (H-[dK]P[Ala(indol-4-yl)][Tle]L-OH; N-terminus and C-terminus assumed)",–,–,≥ 19,–
"CC[C@H](C)[C@H](NC(=O)[C@H](Cc1cccc2ccccc12)NC(=O)[C@@H]1CCCN1C(=O)[C@H](CCN)NC(=O)[C@@H](N)CCCNC(=N)N)C(=O)N[C@@H](CC(C)C)C(=O)O [NT59, [DAB^9,L-3,1Nal^11]NT(8-13)] (H-R[Dab]P[1Nal]IL-OH; N-terminus and C-terminus assumed)",1.73 ± 0.09,6.8 ± 0.2,–,–
"CC[C@H](C)[C@H](NC(=O)[C@H](Cc1cccc2[nH]ccc12)NC(=O)[C@@H]1CCCN1C(=O)[C@H](CCCNC(=N)N)NC(=O)[C@@H](N)CCCNC(=N)N)C(=O)N[C@@H](CC(C)C)C(=O)O [NT64L, [L-neo-Trp^11]NT(8-13)]",–,–,–,0.32
"CC[C@H](C)[C@H](NC(=O)C(CC1CCCCC1)NC(=O)[C@@H]1CCCN1C(=O)[C@H](CCCNC(=N)N)NC(=O)[C@@H](N)CCCNC(=N)N)C(=O)N[C@@H](CC(C)C)C(=O)O (stereo partly shown) [NT32, [CHA^11]NT(8-13)]",–,–,–,99
"CC[C@H](C)[C@H](NC(=O)[C@H](Cc1ccc(O)cc1)NC(=O)[C@@H]1CCCN1C(=O)[C@H](CN)NC(=O)[C@@H](N)CCCNC(=N)N)C(=O)N[C@@H](CC(C)C)C(=O)O [NT39, [DAP^9]NT(8-13)] (H-R[Dap]PYIL-OH; N-terminus and C-terminus assumed)",17 ± 0.2,8.6 ± 0.8,–,–
"CC[C@H](C)[C@H](NC(=O)[C@H](Cc1ccc(O)cc1)NC(=O)[C@@H]1CCCN1C(=O)[C@H](N)CCCN)C(=O)N[C@@H](CC(C)C)C(=O)O [NT35, [D-Orn^9]NT(9-13)] (H-[dOrn]PYIL-OH; N-terminus and C-terminus assumed)",–,–,≥ 19,–
